The name of at least one read-out is uncertain.
test system: rabbit aortic rings; assay: Assay B: In vitro vascular smooth muscle response for AII (antagonist activity, pA2); format: cell-based; details: two values per cell separated by / are separate determinations
Description: Assay B: In Vitro Vascular Smooth Muscle-response for AII
The compounds of the invention were tested for antagonist activity in rabbit aortic rings. Male New Zealand white rabbits (2-2.5 kg) were sacrificed using an overdose of pentobarbital and exsanguinated via the carotid arteries. The thoracic aorta was removed, cleaned of adherent fat and connective tissue and then cut into 3-mm ring segments. The endothelium was removed from the rings by gently sliding a rolled-up piece of filter paper into the vessel lumen. The rings were then mounted in a water-jacketed tissue bath, maintained at 37° C., between moveable and fixed ends of a stainless steel wire with the moveable end attached to an FT03 Grass transducer coupled to a Model 7D Grass Polygraph for recording isometric force responses. The bath was filled with 20 ml of oxygenated (95% oxygen/5% carbon dioxide) Krebs solution of the following composition (mM): 130 NaCl, […], 15 KCl, 1.2 NaH2PO4, 1.2 MgSO4, 2.5 CaCl2, and 11.4 glucose. The preparations were equilibrated for one hour before approximately one gram of passive tension was placed on the rings. Angiotensin II concentration-response curves were then recorded (3×10^−10 to 1×10^−5 M). Each concentration of AII was allowed to elicit its maximal contraction, and then AII was washed out repeatedly for 30 minutes before rechallenging with a higher concentration of AII. Aorta rings were exposed to the test antagonist at […] for 5 minutes before challenging with AII. Adjacent segments of the same aorta ring were used for all concentration-response curves in the presence or absence of the test antagonist. The effectiveness of the test compound was expressed in terms of pA2 values and were calculated according to H. O. Schild [Br. J. Pharmacol, Chemother., 2,189-206 (1947)]. The pA2 value is the concentration of the antagonist which increases the EC50 value for AII by a factor of two. Each test antagonist was evaluated in aorta rings from two rabbits.

Row | SMILES | Assay B pA2
1 | CCCc1nc(CCC)n(Cc2ccc(-c3ccccc3-c3nnn[nH]3)cc2)n1 [Compound 12] | 8.59
2 | CCCCCc1nc(CCCCC)n(Cc2ccc(-c3ccccc3-c3nnn[nH]3)cc2)n1 [Compound 13] | 8.85
3 | CCCCc1nc(CCC)nn1Cc1ccc(-c2ccccc2-c2nnn[nH]2)cc1 [Compound 14] | 8.71
4 | CCCCc1nc(CCC(C)C)n(Cc2ccc(-c3ccccc3-c3nnn[nH]3)cc2)n1 [Compound 16] | 9.24
5 | CCCCc1nc(CCC(C)C)nn1Cc1ccc(-c2ccccc2-c2nnn[nH]2)cc1 [Compound 17] | 8.40
6 | CCCCc1ncnn1Cc1ccc(-c2ccccc2C(=O)O)cc1 [Compound 18] | 6.09
7 | CCCCc1ncn(Cc2ccc(-c3ccccc3C(=O)O)cc2)n1 [Compound 19] | 5.35
8 | CCCCc1nc(-c2ccccc2)n(Cc2ccc(-c3ccccc3-c3nnn[nH]3)cc2)n1 [Compound 22] | 6.46
9 | CCCCc1nc(C(OC)OC)nn1Cc1ccc(-c2ccccc2-c2nnn[nH]2)cc1 [Compound 24] | 7.73
10 | CCCCc1nc(CCc2ccccc2)n(Cc2ccc(-c3ccccc3-c3nnn[nH]3)cc2)n1 [Compound 25] | 6.73
11 | CCCCc1nc(CCc2ccccc2)nn1Cc1ccc(-c2ccccc2-c2nnn[nH]2)cc1 [Compound 26] | 9.66
12 | CCCCc1nc(C(=O)CCC)nn1Cc1ccc(-c2ccccc2-c2nnn[nH]2)cc1 [Compound 30] | 7.88
13 | CCCCc1nc(CNC(=O)OC(C)(C)C)nn1Cc1ccc(-c2ccccc2-c2nnn[nH]2)cc1 [Compound 35] | 7.47
14 | CCCCc1nc(CN)n(Cc2ccc(-c3ccccc3-c3nnn[nH]3)cc2)n1 [Compound 36] | 5.68
15 | CCCCc1nc(CC(OCC)OCC)n(Cc2ccc(-c3ccccc3-c3nnn[nH]3)cc2)n1 [Compound 37] | 6.85
16 | CCCCc1nc(CC)nn1Cc1ccc(-c2ccccc2-c2nnn[nH]2)cc1 [Compound 39] | 7.84
17 | CCCCc1nc(CNC(=O)CCC(NC(C)=O)C(=O)OC(C)(C)C)nn1Cc1ccc(-c2ccccc2-c2nnn[nH]2)cc1 (centres unmarked) [Compound 41] | 5.96
18 | CCCCc1nc(CCC2CCCCC2)n(Cc2ccc(-c3ccccc3-c3nnn[nH]3)cc2)n1 [Compound 42] | 6.26
19 | CCCCc1nc(CCCO)nn1Cc1ccc(-c2ccccc2-c2nnn[nH]2)cc1 [Compound 45] | 8.24
20 | CCCCc1nc(CCCO)n(Cc2ccc(-c3ccccc3-c3nnn[nH]3)cc2)n1 [Compound 46] | 6.64
21 | CCCCc1nc(C(F)F)nn1Cc1ccc(-c2ccccc2-c2nnn[nH]2)cc1 [Compound 47] | 7.58
22 | CCCCc1nc(C=O)nn1Cc1ccc(-c2ccccc2-c2nnn[nH]2)cc1 [Compound 49] | 7.07
23 | CCCCc1nc(C(=O)Cc2ccccc2)nn1Cc1ccc(-c2ccccc2-c2nnn[nH]2)cc1 [Compound 50] | 7.89
24 | CCCCc1nc(C(F)(F)Cc2ccccc2)nn1Cc1ccc(-c2ccccc2-c2nnn[nH]2)cc1 [Compound 51] | 8.51
25 | CCCCc1nc(C(=O)O)nn1Cc1ccc(-c2ccccc2-c2nnn[nH]2)cc1 [Compound 52] | 8.12
26 | CCCCc1ncnn1Cc1ccc(-c2ccccc2-c2nnn[nH]2)cc1 [Compound 53] | 7.83
27 | CCCCc1nc(CCCC2CCCCC2)nn1Cc1ccc(-c2ccccc2-c2nnn[nH]2)cc1 [Compound 58] | 6.57
28 | CCCCc1nc(CC23CC4CC(CC(C4)C2)C3)nn1Cc1ccc(-c2ccccc2-c2nnn[nH]2)cc1 [Compound 62] | 8.61

Row | SMILES | Assay B pA2
29 | CCCCc1nc(CCC(=O)O)nn1Cc1ccc(-c2ccccc2-c2nnn[nH]2)cc1 [Compound 63] | 7.67
30 | CCCCc1nc(CCC(=O)O)n(Cc2ccc(-c3ccccc3-c3nnn[nH]3)cc2)n1 [Compound 64] | 6.77
31 | CCCCc1nc(C2CCCCC2)n(Cc2ccc(-c3ccccc3-c3nnn[nH]3)cc2)n1 [Compound 65] | 7.75
32 | CCCCc1nc(CCCNC(=O)OC(C)(C)C)n(Cc2ccc(-c3ccccc3-c3nnn[nH]3)cc2)n1 [Compound 67] | 5.78
33 | CCCCc1nc(CCCN)nn1Cc1ccc(-c2ccccc2-c2nnn[nH]2)cc1 [Compound 72] | 6.10
34 | CCCCc1nc(CC2CCCCC2)n(Cc2ccc(-c3ccccc3-c3nnn[nH]3)cc2)n1 [Compound 73] | 7.46
35 | CCCCc1nc(CC2CCCCC2)nn1Cc1ccc(-c2ccccc2-c2nnn[nH]2)cc1 [Compound 74] | 8.39
36 | CCCCc1nc(CC)n(Cc2ccc(-c3ccccc3C(=O)O)cc2)n1 [Compound 76] | 5.78
37 | CCCCc1nc(Cc2ccc(-c3ccccc3C(=O)O)cc2)n(CCCC)n1 [Compound 126] | 7.05
38 | CCCCn1nc(C(F)(F)CCC)nc1Cc1ccc(-c2ccccc2-c2nnn[nH]2)cc1 [Compound 130] | 7.94
39 | CCCCc1nc(Cc2ccc(-c3ccccc3-c3nnn[nH]3)nc2)n(CCCC)n1 [Compound 150] | 7.80
40 | CCCCn1nc(CCc2ccccc2)nc1Cc1ccc(-c2ccccc2-c2nnn[nH]2)nc1 [Compound 151] | 7.97
41 | CCCCn1nc(CCC)nc1Cc1ccc(-c2ccccc2-c2nnn[nH]2)nc1 [Compound 152] | 7.23
42 | CCCCn1nc(/C=C/c2cccs2)nc1Cc1ccc(-c2ccccc2-c2nnn[nH]2)nc1 [Compound 154] | 8.38
43 | CCCCn1nc(-c2ccccc2Cl)nc1Cc1ccc(-c2ccccc2-c2nnn[nH]2)nc1 [Compound 158] | 8.14
44 | CCCCn1nc(C(=O)CCC)nc1Cc1ccc(-c2ccccc2-c2nnn[nH]2)nc1 [Compound 160] | 7.71
45 | CCCn1nc(C(C)(F)F)nc1Cc1ccc(-c2ccccc2-c2nnn[nH]2)nc1 [Compound 165] | 7.18
46 | CCCCn1nc(C(C)(F)F)nc1Cc1ccc(-c2ccccc2-c2nnn[nH]2)nc1 [Compound 166] | 7.74
47 | CCCn1nc(C(F)(F)CC)nc1Cc1ccc(-c2ccccc2-c2nnn[nH]2)nc1 [Compound 167] | 7.11
48 | CCCCn1nc(C(F)(F)CC)nc1Cc1ccc(-c2ccccc2-c2nnn[nH]2)nc1 [Compound 168] | 7.58
49 | CCCn1nc(C(F)(F)CCC)nc1Cc1ccc(-c2ccccc2-c2nnn[nH]2)nc1 [Compound 169] | 7.58
50 | CCCCn1nc(C(=O)NC)nc1Cc1ccc(-c2ccccc2-c2nnn[nH]2)nc1 [Compound 172] | 7.04
51 | CCCn1nc(C(OC)OC)nc1Cc1ccc(-c2ccccc2-c2nnn[nH]2)nc1 [Compound 174] | 7.02
52 | CCCCn1nc(C(OCC)OCC)nc1Cc1ccc(-c2ccccc2-c2nnn[nH]2)nc1 [Compound 176] | 7.55
53 | CCCCn1nc(C(OC(C)C)OC(C)C)nc1Cc1ccc(-c2ccccc2-c2nnn[nH]2)nc1 [Compound 178] | 7.47
54 | CCCc1nc(CCC)n(Cc2ccc(-c3ccccc3-c3nnn[nH]3)nc2)n1 [Compound 246] | 7.59
55 | CCCCc1nc(C(F)(F)CCC)nn1Cc1ccc(-c2ccccc2-c2nnn[nH]2)nc1 [Compound 247] | 8.41

same assay, conditions: two values per cell separated by / are separate determinations, listed as 1S

Row | SMILES | Assay B pA2
56 | CCCCc1nc(CCC)n(Cc2ccc(-c3ccccc3-c3nnn[nH]3)cc2)n1 [Compound 15] | 8.30
